Reference: the supplement of paper PMC3334620
Whole data set: some 33,000 sequences, median “E-score (-0.5 to 0.5)” near -0.011, cut for the highest 2% near 0.28. The list shows a part of the results.

Molecular target: T1, Gcr1 (UniProt P07261)
T1 sequence: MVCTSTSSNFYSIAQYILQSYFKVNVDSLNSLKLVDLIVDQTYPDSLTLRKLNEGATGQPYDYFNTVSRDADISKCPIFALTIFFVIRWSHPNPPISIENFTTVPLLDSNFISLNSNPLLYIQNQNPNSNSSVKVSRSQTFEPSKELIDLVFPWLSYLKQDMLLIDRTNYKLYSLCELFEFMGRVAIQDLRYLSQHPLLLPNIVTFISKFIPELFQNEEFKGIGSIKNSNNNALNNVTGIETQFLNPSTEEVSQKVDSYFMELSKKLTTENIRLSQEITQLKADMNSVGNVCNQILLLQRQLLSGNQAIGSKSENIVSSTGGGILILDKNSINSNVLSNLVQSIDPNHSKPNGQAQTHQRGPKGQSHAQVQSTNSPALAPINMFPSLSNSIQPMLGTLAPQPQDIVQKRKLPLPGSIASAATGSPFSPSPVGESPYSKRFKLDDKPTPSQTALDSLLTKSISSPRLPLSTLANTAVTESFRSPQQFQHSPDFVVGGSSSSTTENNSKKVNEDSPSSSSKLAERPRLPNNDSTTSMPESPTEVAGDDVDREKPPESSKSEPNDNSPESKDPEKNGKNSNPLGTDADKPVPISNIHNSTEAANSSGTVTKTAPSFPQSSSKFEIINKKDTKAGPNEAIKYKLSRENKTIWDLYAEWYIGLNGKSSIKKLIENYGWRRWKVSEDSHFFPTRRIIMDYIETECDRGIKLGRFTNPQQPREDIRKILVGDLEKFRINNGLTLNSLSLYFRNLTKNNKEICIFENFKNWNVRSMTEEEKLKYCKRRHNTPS
Experiment: PBM E-score (8-mer binding enrichment) (E-score (-0.5 to 0.5)); higher = stronger / more preferred TF binding; most listed sequences are background and not binding sites
Conditions: protein concentration: 100 nM; construct: GST-full length
Summary of the method: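 GST-tagged yeast TFs (full-length or DNA-binding domain) were made by PURExpress in vitro transcription/translation and applied at about 100-200 nM to universal all-10-mer Agilent arrays. The arrays were made double-stranded by primer extension, on fresh or once-stripped slides. Bound protein was detected with fluorescent anti-GST, and scans were normalised with masliner. Each ungapped eight-base word, pooled with its reverse complement, received an E-score (modified Wilcoxon-Mann-Whitney statistic) from the Universal PBM Analysis Suite.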

Row | Sequence | PBM E-score
1 | CCTGGTTA | -0.13
2 | ACAAATTG | 0.0261
3 | TCGAGCCA | -0.0202
4 | ATCCACTC | 0.318
5 | ACGGCATA | -0.0761
6 | ACCTTTTG | 0.0582
7 | CGGAAACG | 0.0903
8 | AGTGAGGG | -0.141
9 | CTCCAGTC | 0.0921
10 | AAGGACTC | -0.161
11 | AAACGTAG | -0.0677
12 | ATTAGCGC | 0.0397
13 | ACCCGCCT | -0.115
14 | AACAGTTG | -0.118
15 | AGACCAAA | 0.062
16 | CTATACTA | -0.0955
17 | CAAACATA | -0.12
18 | ACGTGATC | -0.21
19 | ATGTTCGG | 0.0415
20 | GCAATTAA | 0.037
21 | AAGGAGAG | -0.101
22 | AACTTTTG | 0.151
23 | GGCTATAC | -0.116
24 | CTAGCCAG | -0.228
25 | AAGCACAA | -0.083

Row | Sequence | PBM E-score
26 | CAGCATTA | -0.0638
27 | AATCTCGC | -0.0134
28 | CTACAAAC | 0.0269
29 | GACCCCCA | 0.0644
30 | CCTCAACG | -0.0423
31 | ATCATTCC | -0.046
32 | CTTCGTAC | -0.253
33 | ACCTAACT | 0.0384
34 | GAATCCGA | 0.271
35 | GATGTGGA | 0.0638
36 | AGGTGAAC | 0.128
37 | ATGCTCCC | -0.209
38 | GTTTTCCA | 0.00515
39 | TAGAGTCA | -0.0554
40 | CAAGGAAA | -0.237
41 | ACTAGCGG | -0.0781
42 | GGTGAAGA | -0.0218
43 | ATCGGACG | -0.136
44 | CAGCCGGG | -0.0668
45 | GTGACGGA | 0.0712
46 | TACTTGGA | 0.0108
47 | ATACAGCA | 0.0215
48 | CGCTCTAA | 0.0686
49 | GACGAGAC | -0.187
50 | AAAAGACT | 0.0153

Row | Sequence | PBM E-score
51 | AATGTCAT | 0.0736
52 | GGCCCTGA | -0.203
53 | TATGTTAA | -0.00661
54 | CGCGACTA | -0.0437
55 | ACCGTCAG | -0.18
56 | CAAACTCA | 0.0523
57 | CGCCAATC | -0.0138
58 | TAGGCTGA | -0.131
59 | AAAAGTTG | 0.179
60 | TAGGGCCA | -0.177
61 | CATATATG | -0.0682
62 | CGCAGGAC | -0.0582
63 | CGAGGGGC | 0.0171
64 | ATTAGTTC | 0.051
65 | ACCTTTCC | -0.0167
66 | CCCACTCG | -0.0725
67 | CACCAGGA | 0.162
68 | CTCAGCAG | 0.107
69 | CGTTCACA | 0.0492
70 | CCGAACAA | 0.159
71 | AAGGTTGA | -0.286
72 | CGCCCTCC | -0.183
73 | AGCGGGCC | -0.09
74 | GCCAGGGC | -0.143
75 | CTCTGCCC | -0.203

Row | Sequence | PBM E-score
76 | AAGGACTA | 0.00095
77 | TACGGTGA | 0.0227
78 | AAGGTCAC | -0.25
79 | CCTGCTGA | 0.104
80 | CCCCTCTA | -0.104
81 | TCAGAAAA | -0.105
82 | GAGCAAGC | -0.213
83 | AACTACAG | 0.0331
84 | ACTTCTTC | 0.168
85 | AGGGGGAA | 0.0613
86 | AATCTAGT | 0.161
87 | CGCTTGAC | 0.0373
88 | GACCCTAA | -0.0305
89 | GAGTTTAA | -0.00268
90 | CGTATTAC | -0.034
91 | CGGATGAC | 0.0341
92 | CTCTGAAC | -0.0346
93 | CGCATTGA | -0.0263
94 | ATTCAGGG | 0.123
95 | CTAGCCTC | 0.00493
96 | GAATTGAA | -0.0437
97 | ACCAGTGA | 0.0553
98 | CAGCGGCA | -0.0336
99 | GCGTATCA | 0.0787
100 | AAGTCCAC | -0.163

Row | Sequence | PBM E-score
101 | ACTGAGCG | -0.0503
102 | GGCGTGAA | -0.0836
103 | CCACTGTA | 0.163
104 | AATCGGAC | 0.0387
105 | GGCTACAA | 0.253
106 | ACGAATGA | 0.0208
107 | ACGACGTG | -0.117
108 | CACACTAG | -0.116
109 | TGACAGCA | -0.0525
110 | CGACTTGA | -0.0147
111 | GCGGCATA | -0.0216
112 | AACTCCTC | -0.106
113 | ATGGAGCA | -0.0672
114 | GCCCTACC | 0.0531
115 | CCGCCGTC | -0.124
116 | GCCTACCC | -0.199
117 | ATCGGAAA | 0.0318
118 | GTTCAAGA | -0.0251
119 | ATGGTGGG | 0.0037
120 | CGCGCAGA | -0.0847
121 | AGGACATC | 0.00599
122 | CAGGCGAG | -0.149
123 | TACTTACA | -0.00444
124 | TAATGAAA | 0.227
125 | AACCTTAG | 0.0219

Row | Sequence | PBM E-score
126 | TGTGCTAA | 0.0627
127 | GGACTTTA | -0.117
128 | AACTCTCG | -0.17
129 | TCGTGAAA | 0.166
130 | TAAATACA | 0.161
131 | GGACCCGA | 0.045
132 | GTGACAAA | -0.0825
133 | ATGGTGCC | 0.227
134 | AGCAGGGG | 0.00965
135 | CGGCAGAC | -0.254
136 | AGCGGTTG | 0.107
137 | ACCAACGG | -0.0789
138 | AAATAATA | 0.122
139 | AACGTGCT | -0.00283
140 | GCACCCGA | 0.25
141 | AGACTTAT | -0.267
142 | CAGTTATG | 0.123
143 | AGGCGTCG | -0.0284
144 | CCCCGCCA | -0.017
145 | AGTATGCG | 0.104
146 | GAACTCAA | 0.0766
147 | CTGTGCTC | -0.0397
148 | CACAGTCC | -0.216
149 | AATTCAGC | 0.03
150 | ATCCTGGC | 0.0795

Row | Sequence | PBM E-score
151 | AGCACGAC | -0.0361
152 | AATTTTGT | 0.109
153 | GCACTAAC | -0.0146
154 | GAAAGGGA | -0.00796
155 | AGCGGCTG | 0.0579
156 | AACAATCT | 0.0862
157 | TGACATAA | 0.0198
158 | AAGGTAAA | 0.0141
159 | CGCGTCGC | -0.148
160 | ACCATTAT | 0.0956
161 | AATGCGAG | 0.0217
162 | GCACCTAA | 0.212
163 | AGTCGGTG | -0.206
164 | CACGATGG | -0.22
165 | AGAAGTGG | 0.243
166 | TATTAACA | 0.11
167 | TAAACGAA | 0.0477
168 | AGATGACC | -0.193
169 | CTTAACCA | -0.112
170 | ATGAAGGC | 0.0308
171 | CGCCCTCA | -0.104
172 | CGCAAGCA | -0.101
